The record followed here is the supplement of paper PMC11876631.

The labels stand for the following.
B1: fmt; numbered along this chain (parent)
chain: MSESLRIIFAGTPDFAARHLDALLSSGHNVVGVFTQPDRPAGRGKKLMPSPVKVLAEEKGLPVFQPVSLRPQENQQLVAELQADVMVVVAYGLILPKAVLEMPRLGCINVHGSLLPRWRGAAPIQRSLWAGDAETGVTIMQMDVGLDTGDMLYKLSCPITAEDTSGTLYDKLAELGPQGLITTLKQLADGTAKPEVQDETLVTYAEKLSKEEARIDWSLSAAQLERCIRAFNPWPMSWLEIEGQPVKVWKASVIDTATNAAPGTILEANKQGIQVATGDGILNLLSLQPAGKKAMSAQDLLNSRREWFVPGNRLV
B2: bioH; numbered along this chain (parent)
chain: MNNIWWQTKGQGNVHLVLLHGWGLNAEVWRCIDEELSSHFTLHLVDLPGFGRSRGFGALSLADMAEAVLQQAPDKAIWLGWSLGGLVASQIALTHPERVQALVTVASSPCFSARDEWPGIKPDVLAGFQQQLSDDFQRTVERFLALQTMGTETARQDARALKKTVLALPMPEVDVLNGGLEILKTVDLRQPLQNVSMPFLRLYGYLDGLVPRKVVPMLDKLWPHSESYIFAKAAHAPFISHPAEFCHLLVALKQRV
B3: mrdA; numbered along this chain (parent)
chain: MKLQNSFRDYTAESALFVRRALVAFLGILLLTGVLIANLYNLQIVRFTDYQTRSNENRIKLVPIAPSRGIIYDRNGIPLALNRTIYQIEMMPEKVDNVQQTLDALRSVVDLTDDDIAAFRKERARSHRFTSIPVKTNLTEVQVARFAVNQYRFPGVEVKGYKRRYYPYGSALTHVIGYVSKINDKDVERLNNDGKLANYAATHDIGKLGIERYYEDVLHGQTGYEEVEVNNRGRVIRQLKEVPPQAGHDIYLTLDLKLQQYIETLLAGSRAAVVVTDPRTGGVLALVSTPSYDPNLFVDGISSKDYSALLNDPNTPLVNRATQGVYPPASTVKPYVAVSALSAGVITRNTTLFDPGWWQLPGSEKRYRDWKKWGHGRLNVTRSLEESADTFFYQVAYDMGIDRLSEWMGKFGYGHYTGIDLAEERSGNMPTREWKQKRFKKPWYQGDTIPVGIGQGYWTATPIQMSKALMILINDGIVKVPHLLMSTAEDGKQVPWVQPHEPPVGDIHSGYWELAKDGMYGVANRPNGTAHKYFASAPYKIAAKSGTAQVFGLKANETYNAHKIAERLRDHKLMTAFAPYNNPQVAVAMILENGGAGPAVGTLMRQILDHIMLGDNNTDLPAENPAVAAAEDH

± gives the standard deviation of the averaged measurements. Laboratory Escherichia coli strains with one amino-acid change in an essential protein, pooled on minimal glucose agar with carbenicillin or gentamicin at twice the control MIC (plus kanamycin and chloramphenicol for the plasmids), 48 h. Fold change of barcode share against drug-free plates; higher = less susceptible. Active = above 20 in both replicates (the paper's putatively resistant). '<' = one read or none on drug, '>' = one read or none on a drug-free plate. Shares are relative, so most strains fall below 1 when a few take over. Listed are strains with at least 15 reads on both drug-free plates, and hits; most hits rest on fewer reference reads. Replicate rank correlation about 0.5. Edits are read from barcodes.

Variants of B1 are the subject of one data set. As to the kind of experiment: barcode share on antibiotic plates over drug-free plates; higher = less susceptible. The following applies: with Escherichia coli (laboratory strain); antibiotic: carbenicillin; 2× MIC (3.1 µg/mL). As for the experimental part:
(§1)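 A pool of E. coli strains, each edited to carry one amino-acid change in an essential protein, was grown for 48 h on minimal glucose agar with or without antibiotic; strain barcodes were sequenced; mean of two replicates.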
Turning to L284A, the “fold change of barcode share” value was found to be 0.244 ± 0.022.

Take F9W: the “fold change of barcode share” value stood at 0.196 ± 0.0053. F9A: the “fold change of barcode share” value came to 0.238 ± 0.063. F9Q: the “fold change of barcode share” value is 0.73 ± 0.47. With M140A, the “fold change of barcode share” value turned out to be 0.0699 ± 0.039. Regarding M140D, the “fold change of barcode share” value is 0.266 ± 0.11. Take M140Q: the “fold change of barcode share” value came to 0.184 ± 0.0071. M140P: the “fold change of barcode share” value came to 0.361 ± 0.11.

In the case of M140W, the “fold change of barcode share” value worked out at 0.315 ± 0.083.

Still in this data set, the particulars now being: with Escherichia coli (laboratory strain); antibiotic: gentamicin; 2× MIC (MIC 0.45 µg/mL).
In the case of F9W, the “fold change of barcode share” value is less than 0.011. With F9A, the “fold change of barcode share” value is less than 0.00506.

For M140D, the “fold change of barcode share” value is less than 0.0104.

As to M140Q, the “fold change of barcode share” value was less than 0.00879. Consider M140P, for which the “fold change of barcode share” value was less than 0.0147. Take M140W: the “fold change of barcode share” value is less than 0.0195.

In another data set the parent is B2. Described as above. The following applies: with Escherichia coli (laboratory strain); antibiotic: gentamicin; 2× MIC (MIC 0.45 µg/mL). On the procedure: as §1
For the variant W78A, the “fold change of barcode share” value was 0.0128 ± 0.0036. As to W78P, the “fold change of barcode share” value is 0.00796 ± 0.0054. Still for that read-out and setting: to W78Q belongs 0.0122 ± 0.0043; to V103A, 0.00909 ± 0.0014; to V103Q, 0.0133 ± 0.0066. V103D: the “fold change of barcode share” value worked out at 0.00723 ± 0.0018. The same measure, in the same setting: as for V103W, the figure is 0.00581 ± 0.0016; as for V103P, 0.00949 ± 0.0028.

Take L249D: the “fold change of barcode share” value was determined as 0.00812 ± 0.00072. Consider L249Q, for which the “fold change of barcode share” value is 0.00508 ± 0.0018. Still for that read-out and setting: as for L249P, the figure is 0.00622 ± 0.00044; as for L249W, 0.00768 ± 0.0034. For the variant L249A, the “fold change of barcode share” value was 0.00843 ± 0.0045.

For L79Q, the “fold change of barcode share” value came to 0.0162 ± 0.01.

Turning to L79W, the “fold change of barcode share” value turned out to be 0.00996 ± 0.00077.

With L79A, the “fold change of barcode share” value stood at 0.00884 ± 0.0015.

With L79D, the “fold change of barcode share” value is 0.00824 ± 0.00092. With L79P, the “fold change of barcode share” value amounted to 0.00591 ± 0.0051. In the case of L200D, the “fold change of barcode share” value was 0.0143 ± 0.013.

In the case of L200Q, the “fold change of barcode share” value is 0.0203 ± 0.015. Regarding L200W, the “fold change of barcode share” value is 0.0174 ± 0.01. As for L200A, the “fold change of barcode share” value was found to be 0.0176 ± 0.015. With L200P, the “fold change of barcode share” value was determined as 0.00775 ± 0.0039.

The same data set, now with this note: with Escherichia coli (laboratory strain); antibiotic: carbenicillin; 2× MIC (3.1 µg/mL).
Take W78Q: the “fold change of barcode share” value was 0.749 ± 0.1. In the case of V103A, the “fold change of barcode share” value turned out to be 0.432 ± 0.12. Take V103Q: the “fold change of barcode share” value turned out to be 0.418 ± 0.12. Still for that read-out and setting: as for V103D, the figure is 0.78 ± 0.13; as for V103W, 0.651 ± 0.26; as for V103P, 0.386 ± 0.11. In the case of L249D, the “fold change of barcode share” value came to 0.239 ± 0.023.

In the case of L249Q, the “fold change of barcode share” value is 0.378 ± 0.067.

Take L249P: the “fold change of barcode share” value is 1.11 ± 0.32.

Consider L249W, for which the “fold change of barcode share” value was found to be 0.284 ± 0.066. Same read-out and setting: as for L249A, the figure is 1.09 ± 0.57; as for L79Q, 0.843 ± 0.32; as for L79W, 0.613 ± 0.035. Turning to L79A, the “fold change of barcode share” value was 0.533 ± 0.12. For the variant L79D, the “fold change of barcode share” value came out at 0.625 ± 0.057. For L79P, the “fold change of barcode share” value was 0.67 ± 0.14.

For L200D, the “fold change of barcode share” value is 0.4127 ± 0.0024. The same measure, in the same setting: to L200Q belongs 0.384 ± 0.064; to L200W, 0.387 ± 0.021; to L200A, 0.483 ± 0.081.

With L200P, the “fold change of barcode share” value amounted to 0.399 ± 0.057.

Another data set covers variants of B3. The data set is described as above. The following applies: with Escherichia coli (laboratory strain); antibiotic: carbenicillin; 2× MIC (3.1 µg/mL). On the procedure:
as §1
For the variant V287W, the “fold change of barcode share” value was found to be 0.25 ± 0.015. Consider V287P, for which the “fold change of barcode share” value amounted to 0.307 ± 0.048.

As to V287Q, the “fold change of barcode share” value came to 0.287 ± 0.057. With V287D, the “fold change of barcode share” value was determined as 0.296 ± 0.013. As to V287A, the “fold change of barcode share” value was determined as 0.35 ± 0.12. Take F392W: the “fold change of barcode share” value was 0.379 ± 0.0044. Still for that read-out and setting: to M604Q belongs 0.278 ± 0.17; to M604P, 0.191 ± 0.044; to M604A, 0.651 ± 0.66. For M604D, the “fold change of barcode share” value came to 0.0452 ± 0.0068. With M604W, the “fold change of barcode share” value was found to be 0.117 ± 0.065. On the same count and under the same terms, as for I176D, the figure is 0.159 ± 0.055; as for I176A, 0.146 ± 0.051; as for I176Q, 0.184 ± 0.098. On the same count and under the same terms, as for V274D, the figure is 0.18 ± 0.056; as for V274Q, 0.113 ± 0.083. Same read-out and setting: as for V274A, the figure is 0.266 ± 0.15; as for I607Q, 0.322 ± 0.082; as for I607W, 0.234 ± 0.11. Regarding I607A, the “fold change of barcode share” value was found to be 0.362 ± 0.15. On the same count and under the same terms, to V275W belongs 0.0859 ± 0.047; to V275A, 0.269 ± 0.036.

For V275Q, the “fold change of barcode share” value worked out at 0.161 ± 0.014. I590Q: the “fold change of barcode share” value came to 0.567 ± 0.57.

The same data set, now with this note: with Escherichia coli (laboratory strain); antibiotic: gentamicin; 2× MIC (MIC 0.45 µg/mL).
V287W: the “fold change of barcode share” value turned out to be 0.728 ± 1. With V287P, the “fold change of barcode share” value is 0.00595 ± 0.0046.

Regarding V287Q, the “fold change of barcode share” value worked out at 0.0151 ± 0.015. On to V287D, for which the “fold change of barcode share” value is 0.0252 ± 0.029. On to V287A, for which the “fold change of barcode share” value was less than 0.00243. Turning to F392W, the “fold change of barcode share” value is less than 0.00442. For the variant M604Q, the “fold change of barcode share” value is less than 0.00476. Still for that read-out and setting: as for M604P, the figure is less than 0.00973. Regarding M604A, the “fold change of barcode share” value was determined as 0.0459 ± 0.058. On to M604D, for which the “fold change of barcode share” value is less than 0.0104. Take M604W: the “fold change of barcode share” value is 0.023 ± 0.028. For I176D, the “fold change of barcode share” value is less than 0.0173. I176A: the “fold change of barcode share” value was less than 0.00816. As to I176Q, the “fold change of barcode share” value is less than 0.0167. Consider V274D, for which the “fold change of barcode share” value is less than 0.00868.

Regarding V274W, the “fold change of barcode share” value was less than 0.019. As for V274Q, the “fold change of barcode share” value was less than 0.00736. The same measure, in the same setting: to V274A belongs 0.0077 ± 0.0034. Consider I607Q, for which the “fold change of barcode share” value was found to be 0.0126 ± 0.00084. In the case of I607W, the “fold change of barcode share” value is 0.0067 ± 0.0025. With I607A, the “fold change of barcode share” value was less than 0.00754.

With V275W, the “fold change of barcode share” value came out at 0.0143 ± 0.012.

Consider V275A, for which the “fold change of barcode share” value is less than 0.00289.

As to V275Q, the “fold change of barcode share” value came to 0.0101 ± 0.0021.

Consider I590Q, for which the “fold change of barcode share” value came out at 0.0297 ± 0.026.
